The supplement of paper PMC11417369
The list shows a part of the results.

What follows are sequences tested on PfHDP1 homeodomain (GST-tagged) (assay: gcPBM binding intensity (ln(normalized median fluorescence intensity)); higher = stronger DNA binding).
Summary of the method: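 GST-fused DNA-binding domains of P. falciparum, expressed in E. coli, were applied at about 25 μg on average for 1 h to an Agilent 4 × 180k array of primer-extended double-stranded 36-bp intergenic genomic probes and negative controls. Binding intensity is the highest Masliner-normalised natural-log median intensity across replicate spots of either probe orientation, measured with Alexa488 anti-GST antibody and a 488 nm scan.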

Sequence	gcPBM binding intensity (ln)
TTCACATATATATAACGTACATTATTATTATTCTGA [XGTACX_site6006]	6.62
TTTTTTTTTCCTTCTTGTACATATTATATATACATA [XGTACX_site5988]	6.8
TGGAACGTAATAAAATGTACATACGTTTTTCATATG [XGTACX_site6229]	6.27
AATGAAATAATACAATGTACGTTAAAAAAAAATAAA [XGTACX_site7928]	6.75
GTATTATTTTATGATGCATGTGTATTTCATATATGC [TGCATGCA_site660]	6.46
TAATATCAAACCTATAGTACATAAGGTATAAAAAAG [XGTACX_site3533]	6.6
AATATAACTTTTTGCACACTTAATTTTTTTTTTTAA [CACACA_site3365]	10.6
TAACAAAAAGCACTTAGTACATATATATATATATAT [XGTACX_site1099]	9.14
AGGTAATATACTAAATGTACAGAAAAACGAATTTTT [XGTACX_site2977]	6.48
TATATTTATTATAACACACACATATTTATATTATAG [CACACA_site6628]	6.43
TTTCTTTTTAAATATATACACACCGGGTGTACATAT [CACACA_site3345]	6.62
ATGTTATATTATAAAAGTACATTTTATTTTTATTTA [XGTACX_site4365]	6.53
TTAATTTATAAAAACACACACAGGTAAAAAGGTGCA [CACACA_site1177]	7.21
ATTTCCTTTTTCTGTTGTACTCATAAAATAATATGT [XGTACX_site7234]	7.39
GTTAAGTGTATATATACACACATATGTAATACATGA [CACACA_site3048]	7.22
AAAAAAAGTGACTCCTTACACACTTTACATAATTTA [CACACA_site820]	6.24
TAAAAATATATGTATACACACATATATATATATATA [CACACA_site3951]	9.29
AATATTGAAATAACGCGTACAAAAAAAAGTTATATT [XGTACX_site6559]	6.8
TAATTAAAATTATATATTAGAAAAAACATATAAAAC [CACACA_negctrl_site190]	6.42
ATATGTAGAATAAAAAAAAAAAAAAAAAAAAAAAAT [CACACA_negctrl_site621]	6.09
TACAGACAGAAACACACACACACGCATAAAAAAAAA [CACACA_site1514]	6.81
ATTTATTTATTTATATGTACATATATATATATATAT [XGTACX_site339]	9.31

Sequence	gcPBM binding intensity (ln)
TAATAATAACCGTTATGTACACAATTTTGTGAACAT [XGTACX_site8053]	6.35
GATGGAATCTAATTTACATGCAGTGATATAATAAAT [TGCATGCA_site1031]	6.47
ACTTCCTATATTTATGCATGCATTTTATTAAAAAAT [TGCATGCA_site747]	7.8
ATATATCATGAACCTTGTACGTATATATATATATAT [XGTACX_site239]	9.25
TATACAATATTTATAACACACATATTTATATAAACT [CACACA_site6932]	6.49
ACTAAACAATATGTATGTACATATTTTACATATAAT [XGTACX_site3318]	6.62
AGAACATTTTCTCAGTGTACTTATATATTTGACATA [XGTACX_site6541]	6.44
TTATTAGAAAAATGCACACCAAAAAAAAAAAAAAAA [CACACA_site2522]	8.93
ATACATATACACATATGTACATATGAAAAGAAAAAT [XGTACX_site6445]	7.15
TACATATATATAAATACACACACACCCACCTTATAA [CACACA_site9346]	6.99
TTTTTATTTTATAATATATTCCTTTTCCTTTCTTTC [CACACA_negctrl_site245]	6.29
TATATATATTGTGTATGTACATATATATAAATATTG [XGTACX_site433]	6.68
TTCATTTGAAAACTGTGTACTTAAAAATATACATAT [XGTACX_site176]	6.11
AATATAATATAATGCACACATAAACAAAAAAAAAAT [CACACA_site1304]	10.5
ATATATTTAAATAAATGTACAAATCATAAATTCAAG [XGTACX_site1417]	6.07
AAGATAACAAGTAATCAATCTAATTATTAATTATAT [CACACA_negctrl_site1713]	5.92
AAAAATATGTGATAATGTACTTTTCATTTTTATTTT [XGTACX_site8544]	6.09
AAAAGAAAAATGTCATATGATATCATATATTTTATA [GTGCAC_negctrl_site185]	6.26
ATATACATATATATATGTACTGAAAAGAAAAGAATT [XGTACX_site150]	6.69
CATAAATACATACATACACACATATTTATATTTATA [CACACA_site7071]	6.76
ATAATTATATATATATGTACATATTATATATATATA [XGTACX_site4526]	8.45
TGTTTTTAAATTTAAATCAAAAAATAAAATAAAATA [GTGCAC_negctrl_site355]	6.32
